# According to PubChem BioAssay AID1460 (National Center for Advancing Translational Sciences (NCATS), 2008):
# “And” between values parts separate entries of the source, which are not always exact repeats. Equal values may be shown once. Hit rate of the full screen: of about 270,000 compounds, about 5,800 (2.1%) were called active. The inconclusive results got no clear call from the source; some entries with a clear call stand among them for comparison. The call rests on the fitted dose curve; in most records, active means well fitted inhibition curve with a large enough effect; inconclusive means small, poorly fitted or top-dose-only effect; inactive means flat fitted curve, though single readings scatter. Where the call is inconclusive, the potency comes from a doubtful curve fit.
# Biological target: Microtubule-associated protein tau (Homo sapiens) (UniProt P10636)
# Sequence of UniProt P10636 (P10636 whole entry, looked up): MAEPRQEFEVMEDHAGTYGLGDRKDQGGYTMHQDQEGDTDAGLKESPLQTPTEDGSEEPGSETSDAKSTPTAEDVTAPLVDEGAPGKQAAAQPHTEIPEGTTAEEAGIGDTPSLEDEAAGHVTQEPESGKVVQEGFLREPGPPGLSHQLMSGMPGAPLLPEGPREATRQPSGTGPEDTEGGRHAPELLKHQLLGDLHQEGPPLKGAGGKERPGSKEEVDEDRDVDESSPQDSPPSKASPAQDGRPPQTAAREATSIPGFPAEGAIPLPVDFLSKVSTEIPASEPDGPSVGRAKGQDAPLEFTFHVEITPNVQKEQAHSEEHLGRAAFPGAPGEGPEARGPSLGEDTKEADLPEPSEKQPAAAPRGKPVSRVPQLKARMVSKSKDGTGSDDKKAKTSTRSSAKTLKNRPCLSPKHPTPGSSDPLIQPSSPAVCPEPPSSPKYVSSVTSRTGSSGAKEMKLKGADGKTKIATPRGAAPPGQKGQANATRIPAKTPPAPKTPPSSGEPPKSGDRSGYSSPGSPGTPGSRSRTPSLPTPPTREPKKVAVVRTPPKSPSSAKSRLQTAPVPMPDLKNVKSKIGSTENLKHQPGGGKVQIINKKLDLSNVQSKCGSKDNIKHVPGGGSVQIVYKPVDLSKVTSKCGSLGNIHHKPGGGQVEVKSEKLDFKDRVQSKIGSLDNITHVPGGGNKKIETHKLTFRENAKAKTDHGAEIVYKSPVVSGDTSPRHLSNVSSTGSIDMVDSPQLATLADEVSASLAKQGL
# Assay: qHTS for Inhibitors of Tau Fibril Formation, Thioflavin T Binding; further: nearly all actives have a fitted effect of over 55% in size
# Details: recombinant tau K18 P301L, heparin-induced fibrillization, ThT fluorescence; series mostly up to 57.4 µM
# Method in brief: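 Using a mix of unlabeled (15 uM) and Alexa 594-labeled (0.24 uM) tau K18 P301L, heparin-triggered fibrillization over 6 hr at 37 C was scored by ThT fluorescence.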
# Potency means the concentration at half of the fitted maximal effect; tags describe the fitted curve by direction and shape.
row,SMILES,Potency
1,CC(=O)Nc1cc(OC(C)=O)c2nonc2c1OC(C)=O,active: 1.12 µM
2,COc1ccc(CCN2CCC(Nc3nc4ccccc4n3Cc3ccc(F)cc3)CC2)cc1,"inconclusive: 1.58 µM [inhibitor, partial curve, poor fit] and inconclusive: 39.8 µM [inhibitor, single point] and inconclusive: 17.8 µM [inhibitor, partial curve]"
3,C/C(=N\NC(=S)NC(C)C)c1ccc2c(c1)OCCO2,"inconclusive: 25.1 µM [inhibitor, single point]"
4,CCOc1nc(-c2ccccc2)ccc1-c1noc(-c2ccco2)n1,inactive
5,CCOc1ccc(/C(O)=C/C(=O)C(=O)Nc2ccc(S(=O)(=O)NC(C)=O)cc2)cc1,"inconclusive: 14.1 µM [inhibitor, partial curve]"
6,O=C(Nc1cc(-c2nc3ccccc3o2)ccc1Cl)c1ccc(N2CCCCC2)c([N+](=O)[O-])c1,"inconclusive: 2.24 µM [inhibitor, full curve]"
7,COc1cc(OC)cc(C(=O)Nc2nnc(NC(=S)Nc3ccccc3)s2)c1,"inconclusive: 6.31 µM [inhibitor, full curve]"
8,COc1ccc(/C=N/n2cncn2)cc1COc1ccc(NC(C)=O)cc1,"inconclusive: 39.8 µM [activator, single point]"
9,COc1cccc(C(=O)N=c2sc3c(C)ccc(OC)c3n2C)c1,"inconclusive: 2.24 µM [inhibitor, full curve]"
10,CCn1c(=O)sc2cc(NS(=O)(=O)c3ccc(F)c(C)c3)ccc21,inactive
11,CCOc1ccc(Nc2oc(-c3ccc(Cl)cc3)nc2C#N)cc1,"inconclusive: 10 µM [inhibitor, partial curve]"
12,Cc1ccc(CSc2cn(CC(=O)N3CCCC3)c3ccccc23)cc1,"inconclusive: 17.8 µM [inhibitor, partial curve]"
13,NS(=O)(=O)c1ccc(N/N=C/c2cn(-c3ccccc3)nc2-c2cccs2)c([N+](=O)[O-])c1,active: 2.51 µM
14,CCOP(=O)(OCC)C(Nc1ccccc1)c1ccc2c(c1)OCO2 (configuration not stated),"inconclusive: 2 µM [inhibitor, full curve]"
15,Cc1cc2c(N=O)c(NO)ccc2[nH]1,"inconclusive: 25.1 µM [inhibitor, partial curve]"
16,O=C(c1cc(-c2ccc(Cl)cc2)n(-c2ccc(Cl)cc2)n1)N1CCOCC1,"inconclusive: 39.8 µM [inhibitor, single point]"
17,COC(=O)c1ccccc1NC(=O)CSc1nc2ccccc2nc1Cc1ccccc1OC,inactive
